# In PubChem BioAssay AID624296 (National Center for Advancing Translational Sciences (NCATS), 2012):
# Screen size: about 350,000 compounds; about 9,900 (2.8%) were called active. This list was built around the results that the source calls inconclusive (neither active nor inactive); the mix of calls is not that of the screen. The call rests on the fitted dose curve; in most records, active means well fitted activation curve with a large enough effect; inconclusive means small, poorly fitted or top-dose-only effect; inactive means no such curve, though single readings can be large or run the other way. Potencies of inconclusive entries are left out as doubtful fits.
# Assay: A quantitative high throughput screen for small molecules that induce DNA re-replication in MCF 10a normal breast cells. Further: nearly all actives have a fitted effect of over 50% in size.
# Details: MCF 10A DNA re-replication, Hoechst nuclear intensity, 48 h; series mostly up to 46.1 µM
# Potency means the concentration at half of the fitted maximal effect; tags describe the fitted curve by direction and shape.
row,SMILES,Potency
1,N=c1n(CCN2CCCCC2)c2ccccc2n1CC(O)COc1ccccc1 (stereo not given),inactive
2,Cc1cc(C)cc(N(C(=O)c2nsc(Cl)c2Cl)C(C(=O)NC2CCCC2)c2ccc(O)cc2)c1 (stereo not given),"inconclusive [activator, single point]"
3,Cc1ccc(NC(=O)c2ccccc2-c2ccc(C(F)(F)F)cc2)cc1S(=O)(=O)N1CCOCC1,"inconclusive [activator, partial curve, poor fit]"
4,COCCNC(=O)c1c(CSc2ccc(Cl)cc2)noc1C(=O)NCc1ccccc1,"inconclusive [activator, full curve, poor fit]"
5,CCC(=O)N1CCN(C(=O)CC)C1c1ccccc1,"inconclusive [activator, single point]"
6,CCN1CCN(CCNC(=O)C2CCCN(Cc3nc(-c4cccc(Cl)c4)oc3C)C2)CC1 (stereo not given),"inconclusive [activator, single point]"
7,O=C(COC(=O)c1ccccc1C(=O)OCC(=O)NCCc1c[nH]c2ccccc12)NCCc1c[nH]c2ccccc12,"inconclusive [activator, single point]"
8,CC(=O)c1ccc(OCC(O)CN2CCN(CCN3C(=O)c4cccc5cccc(c45)C3=O)CC2)cc1 (stereo not given),"inconclusive [activator, single point]"
9,C/C(=N\NC(=O)CCCNc1cccc(C)c1)c1ccncc1,inactive
10,CC(=O)Nc1ccc(S(=O)(=O)N2CCN(c3nc(C)cc(C)n3)CC2)cc1,"inconclusive [activator, full curve, poor fit]"
11,CC(=Nc1ccccc1)c1sc2ccccc2c1O,"inconclusive [activator, single point]"
12,CCN(C(=O)c1ccccc1F)c1nc(-c2ccc(OC)cc2)cs1,"inconclusive [activator, partial curve, poor fit]"
13,COc1ccc(NC(=O)Nc2cc(C)ccc2F)cc1,"inconclusive [activator, partial curve]"
14,CCCNc1nc2c(c(=O)[nH]c(=O)n2C)n1CCCc1ccccc1,inactive
15,COc1cc(NC2=Nc3cccc4cccc2c34)cc(OC)c1OC,"inconclusive [activator, single point]"
16,COC(=O)C(NC(C)=O)(Nc1ccccn1)C(F)(F)F (stereo not given),inactive
17,CCOc1cc(S(=O)(=O)N2CCCC2)ccc1Cl,active: 1.03 µM
18,COc1cc(-c2ccc3oc(-c4ccsc4)cc3c2)cc(OC)c1OC,"inconclusive [activator, partial curve, poor fit]"
19,COc1ccc(C(=O)NCC(=O)NCC(=O)OCC(=O)C(C)(C)C)cc1,"inconclusive [activator, single point]"
20,O=C(NCC(=O)N(CC1CCCO1)C1(C(=O)NC2CCCCC2)CCCCC1)c1ccccc1 (stereo not given),inactive
21,O=C(Nc1cc(Cl)ccc1Cl)Nn1cnnc1,inactive
22,CCCNC(=O)Cc1c(C)n(C(=O)c2ccc(Cl)cc2)c2ccc(OC)cc12,"inconclusive [activator, single point]"

row,SMILES,Potency
1,CC(C)CNC(=S)NNC(=O)c1csc2c1CCC(C)C2 (stereo not given),inactive
2,Cc1[nH]n(C(N)=S)c(=O)c1N=Nc1cccc(C(F)(F)F)c1,inactive
3,O=C1N/C(=N\N=C\c2cccs2)SC1Cc1cccc(Cl)c1 (stereo not given),active: 2.91 µM
4,Cc1cc(C)c(C#N)c(SCC(=O)C2CC2)n1,"inconclusive [activator, single point]"
5,Cc1onc(-c2ccccc2)c1C(=O)N[C@@H]1C(=O)N2[C@@H]1SC(C)(C)[C@@H]2C(=O)O,inactive
6,COc1ccc(NC(=O)Cn2nnc(C(=O)NCc3ccc4c(c3)OCO4)c2N)c(OC)c1,"inconclusive [activator, partial curve, poor fit]"
7,COc1ccccc1NC(=O)NNC(=O)c1ccc2ccccc2c1O,inactive
8,Cc1nonc1C(=O)N/N=C/c1ccc(O)c(O)c1,"inconclusive [activator, partial curve, poor fit]"
9,COc1ccc(-c2csc(NNC3=NCCCCC3)n2)cc1,"inconclusive [activator, single point]"
10,CC(=O)Nc1ccc(NC(=O)COC(=O)CCc2nc3ccccc3s2)cc1,"inconclusive [activator, single point]"
11,COC(=O)c1ccc(NC(=O)Cn2c(-c3nonc3N)nc3ccccc32)cc1,"inconclusive [activator, partial curve, poor fit]"
12,Cc1ccc(NC(=O)CC2COc3ccccc3O2)cc1 (stereo not given),"inconclusive [activator, single point]"
13,O=c1cc(/C=C/c2ccccc2)oc2ccccc12,"inconclusive [activator, single point]"
14,Cc1cc(NC(=O)/C=C/C(=O)N(c2ccccc2C)C(C(=O)NC2CCCC2)c2ccc(F)cc2)no1 (stereo not given),"inconclusive [activator, single point]"
15,COc1ccc(Nc2nc(-c3cccs3)nc3ccccc23)cc1S(=O)(=O)N1CCOCC1,"inconclusive [activator, single point]"
16,CCOC(=O)c1c(N)n(C2CC(C)(C)NC(C)(C)C2)c2nc3ccccc3nc12,"inconclusive [activator, partial curve, poor fit]"
17,CN(Cc1ccccc1)C(=O)c1cccc(NC(=O)Cc2ccc(NC(=O)C3CCCN(C(=O)CCc4ccccc4)C3)cc2)c1 (stereo not given),"inconclusive [activator, single point]"
18,CN(C)CCN(Cc1ccco1)C(=O)c1cc2c(Cl)nc3ccccc3c2s1,"inconclusive [activator, single point]"
19,C1=C(c2ccccc2)Nc2ccccc2N=C1c1ccccc1,"inconclusive [activator, single point]"
20,C[C@@H]1CCC2[C@](C)(CO)[C@@H](O)CC[C@]2(C)[C@@]12CC[C@@](CO)(CC(=O)O)O2 (stereo not given in full),inactive
21,O=C(NC(=S)Nc1ccccc1N1CCN(C(=O)c2ccccc2)CC1)c1ccccc1F,"inconclusive [activator, single point]"
22,CCOC(=O)CCc1c(C)c2ccc(OCc3cc([N+](=O)[O-])ccc3OC)c(C)c2oc1=O,"inconclusive [activator, partial curve, poor fit]"

row,SMILES,Potency
1,CCOC(=O)C(Cc1ccccc1)NC(=O)CNC(=O)CNC(=O)OCc1ccccc1 (stereo not given),"inconclusive [activator, partial curve, poor fit]"
2,COc1ccc(N=C(NN)c2ccc3ccccc3n2)cc1,"inconclusive [activator, single point]"
3,Cc1ccc([C@@H]2[C@@H]3C(=O)N(C)C(=O)[C@@H]3[C@@H]3C(=O)Nc4ccccc4C(=O)N23)cc1,inactive
4,COc1cccc(C(=O)NC2CCNCC2)c1,"inconclusive [activator, single point]"
5,CCC(c1nnnn1Cc1ccc2c(c1)OCO2)N1CCN(c2ccc(F)cc2)CC1 (stereo not given),inactive
6,O=C(NC1CC1)C1CCN(C2CCN(Cc3ccccc3C(F)(F)F)CC2)CC1,inactive
7,Cc1nn(-c2ccccc2)c(Cl)c1/C=N/NC(=O)CNC(=O)c1ccccc1Cl,"inconclusive [activator, single point]"
8,CCN(CC)S(=O)(=O)c1ccc(N/N=C/c2ccc(O)cc2O)nc1,"inconclusive [activator, partial curve]"
9,Cc1ccc(NC(=O)c2ncn(CCCN[C@H](C)c3cccc4ccccc34)n2)cc1C,"inconclusive [activator, partial curve, poor fit]"
10,Cc1cccn2c(=O)c3cc(C(=O)NC(C)C)c(=N)n(Cc4ccncc4)c3nc12,active: 16.4 µM
11,CC1(C)SC(=S)N(/N=C/c2ccccc2O)C1N(O)C(=O)Nc1ccccc1 (stereo not given),"inconclusive [activator, partial curve, poor fit]"
12,Cc1ccc2c(c1)NC(=O)[C@@]1(C)[C@@H](c3ccccc3)[C@H]3COc4ccc(Cl)cc4[C@@H]3N1C2=O,"inconclusive [activator, partial curve, poor fit]"
13,COc1ccc(-c2cc(C(=O)Nc3nc4c(C)cccc4s3)c3ccccc3n2)cc1OC,"inconclusive [activator, full curve, poor fit]"
14,O=C(NCCCO)c1nnc(Cc2c(F)cccc2Cl)o1,"inconclusive [activator, full curve, poor fit]"
15,Cc1cc(C)c(NC(=O)CSc2nnc(-c3ccncc3)n2Cc2ccco2)c(Cl)c1,inactive
16,COc1ccc(-c2noc(CCC(=O)N3CCN(c4ccccc4C(F)(F)F)CC3)n2)cc1,"inconclusive [activator, partial curve, poor fit]"
17,Cc1ccc(OCCCC(=O)NNC(=O)c2ccccn2)cc1,"inconclusive [activator, single point]"
18,CCCOc1ccc(C(=O)CCC(=O)OCC(=O)Nc2cccc(S(N)(=O)=O)c2)cc1,inactive
19,Cc1ccc(-c2c(C(=O)NCc3ccc(F)cc3)oc(=O)c3ccccc23)cc1,inactive
20,Cc1cccc(C(=O)O)c1NC(=O)c1ccc(F)cc1,"inconclusive [activator, full curve, poor fit]"
21,Cc1ccc(Cn2c(/C=C/c3ccco3)nc3ccccc32)cc1,inactive
